# Data published in the supplement of paper PMC3334620.
# Over roughly 33,000 sequences, “E-score (-0.5 to 0.5)” has its median near -0.021; the highest 2% begin near 0.32. Some of the results follow.
# Biological target: T1, Zap1 (UniProt P47043)
# T1 sequence: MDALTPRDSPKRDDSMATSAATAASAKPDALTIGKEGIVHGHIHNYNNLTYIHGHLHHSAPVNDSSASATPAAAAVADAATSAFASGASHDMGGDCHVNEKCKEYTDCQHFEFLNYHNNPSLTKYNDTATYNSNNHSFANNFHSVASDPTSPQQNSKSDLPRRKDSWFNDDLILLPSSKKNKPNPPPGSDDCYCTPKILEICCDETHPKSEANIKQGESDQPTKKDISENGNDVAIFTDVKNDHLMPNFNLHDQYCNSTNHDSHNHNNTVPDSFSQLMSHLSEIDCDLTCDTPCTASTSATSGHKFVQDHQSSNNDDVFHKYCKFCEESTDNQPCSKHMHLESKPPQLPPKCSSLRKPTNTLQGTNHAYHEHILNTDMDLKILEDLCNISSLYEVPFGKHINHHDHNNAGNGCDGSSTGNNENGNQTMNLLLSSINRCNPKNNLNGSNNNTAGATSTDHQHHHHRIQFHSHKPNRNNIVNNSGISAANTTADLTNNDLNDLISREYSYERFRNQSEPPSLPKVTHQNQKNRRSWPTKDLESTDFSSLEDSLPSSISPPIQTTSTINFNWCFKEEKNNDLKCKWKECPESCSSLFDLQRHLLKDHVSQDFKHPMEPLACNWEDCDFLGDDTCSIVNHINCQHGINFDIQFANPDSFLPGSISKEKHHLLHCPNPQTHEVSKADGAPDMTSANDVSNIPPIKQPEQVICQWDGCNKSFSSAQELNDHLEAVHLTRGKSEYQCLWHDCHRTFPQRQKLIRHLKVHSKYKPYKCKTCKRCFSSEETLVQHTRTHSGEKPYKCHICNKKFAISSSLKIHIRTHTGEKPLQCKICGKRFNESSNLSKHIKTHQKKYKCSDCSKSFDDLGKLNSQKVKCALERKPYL
# Assay: PBM E-score (8-mer binding enrichment) (E-score (-0.5 to 0.5)); higher = stronger / more preferred TF binding; most listed sequences are background and not binding sites
# Settings: protein concentration: 200 nM; construct: GST-full length
# Summary of the method: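 PURExpress in vitro transcription/translation supplied GST-tagged yeast transcription factors, either full-length or DNA-binding domain. Applied at about 100-200 nM to universal all-10-mer Agilent arrays double-stranded by primer extension, the bound protein was detected with fluorescent anti-GST. E-scores, modified Wilcoxon-Mann-Whitney statistics, were given by the Universal PBM Analysis Suite to ungapped eight-base words pooled with their reverse complements after masliner normalisation.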
row,Sequence,PBM E-score
1,CAGCGGGG,-0.0777
2,CTTGCAAG,0.189
3,ATAGCGTA,0.049
4,CTGACGAC,-0.0574
5,ATATGTTA,-0.0726
6,TACCCTGA,0.406
7,ACAGCATC,-0.0364
8,AATGAGGA,-0.232
9,ACGTTCCC,-0.227
10,ATTAATTG,0.158
11,CTGGACAG,0.0179
12,CCAATAGC,0.00062
13,CACACCTC,-0.121
14,ATGGGAAG,-0.106
15,AGAATCTA,0.0831
16,AACTTGTG,0.16
17,CGTCCAAA,0.122
18,ATTTTAGG,0.198
19,AAACGATA,0.1
20,AAAAGTAG,0.0863
21,CGGAGGAC,-0.25
22,AACGGGTA,0.375
23,AGAGTGAG,-0.145
24,CACCGACA,-0.156
25,ACTTGTCA,-0.214

row,Sequence,PBM E-score
1,AGCAAGAC,-0.0397
2,ACACGCCG,0.0254
3,GTGCCCGA,-0.105
4,AAGTACTG,-0.021
5,AAACACAA,0.138
6,CTTGCGTA,-0.00416
7,AGACGCGA,-0.036
8,ACATCCCG,-0.116
9,CAGGTGAC,0.241
10,CGGTCCTC,-0.15
11,CGAAACTA,0.124
12,GGTCATGA,0.346
13,AGTGCAAT,0.0115
14,CCTCGCGC,-0.00774
15,CGATTTGC,-0.162
16,ATACCTGA,0.312
17,CTCATAAA,0.0219
18,CCTAGACA,-0.139
19,AGGCCCCG,-0.0598
20,ATCTATGA,-0.253
21,ATCTAGAG,-0.0663
22,AGAGCTCA,-0.133
23,ACCTCATA,0.243
24,ATGTGTAG,-0.117
25,GGAGGTAA,0.289

row,Sequence,PBM E-score
1,GCGATCGC,0.109
2,CTCGTGTA,0.089
3,GGCTTGAC,-0.0797
4,ACAATGAA,0.0953
5,CGCTGTGA,-0.023
6,AGCCGGTA,0.0757
7,CCCCCCAG,-0.311
8,GGGACAGA,-0.228
9,GATTACAA,-0.0141
10,ATTGGTCG,0.153
11,CGCGACGC,-0.0704
12,TCAAGCGA,-0.0513
13,CAAGACAC,-0.0181
14,CCGGCGCA,-0.137
15,CGTACTCA,-0.0651
16,CAAAATTA,0.287
17,CCCCAAGG,0.123
18,CTGCTTCA,-0.223
19,CCAACTGA,-0.00692
20,AAACATGT,0.14
21,CGTCATAA,-0.0193
22,AAATCCAC,-0.0197
23,GTTGCACA,-0.0449
24,ACGAAGAA,0.0665
25,AGCCCGTA,-0.271

row,Sequence,PBM E-score
1,ATGAGAGG,-0.0137
2,ATTCACAG,0.0175
3,AGAGCTTG,-0.11
4,GTACGATA,-0.0268
5,AACGTTTA,0.114
6,GCCACTCC,-0.0945
7,ACGGAATA,0.142
8,ACGCCGGA,-0.282
9,CCCGTCGC,-0.0742
10,AAACACCC,0.226
11,AGACTTTG,-0.141
12,AGGGGGGG,-0.39
13,ACTGCTAG,-0.269
14,CCAAGGAA,-0.116
15,GATCAGTA,0.055
16,AATTTTGA,0.279
17,GATAAAAA,0.163
18,CCCGTCGA,-0.0433
19,ACTATGGA,-0.0878
20,AAAGTGTC,-0.114
21,AGGCAAGC,-0.266
22,ATATACTG,0.119
23,ATTTTTTC,0.0779
24,CCTGGTCG,-0.0551
25,CCAAGTAG,-0.115

row,Sequence,PBM E-score
1,CGAGATTC,-0.0831
2,CATGATAC,0.124
3,CTGGCTGC,-0.259
4,CGTCCCTA,-0.143
5,CGAATGAA,-0.00672
6,GGACAGCA,-0.052
7,GAGACCCC,0.105
8,ATTTCCTG,0.0973
9,CTTTTGCC,0.0146
10,AGATCGCG,-0.0418
11,GCAGAAAC,0.0633
12,AAGTTACG,0.17
13,GACACGCA,-0.00968
14,ACTAAAAG,0.191
15,GCTAGATA,0.0407
16,AAGCTGAG,-0.145
17,TATAGTCA,0.13
18,GTATGGTA,0.171
19,CCAGACTC,-0.217
20,CTAAGAGA,-0.206
21,CCCCTAGG,0.16
22,CGAGAACC,0.239
23,GACAGTAC,0.087
24,GAGAGCAC,-0.00012
25,GAATCTAC,0.00625

row,Sequence,PBM E-score
1,ACCGTTCT,0.0384
2,CTTAGTTC,0.00938
3,AAGACGGC,-0.276
4,GAGTGCAA,0.0286
5,TCAAAGGA,0.0309
6,CGCAATGC,-0.0628
7,ACCACAGT,0.227
8,ATGTTATG,0.158
9,GTAGATAC,0.0139
10,CACCACTA,0.22
11,CGCAGTGA,-0.122
12,CAGGACCC,0.24
13,ATTGTAAC,0.225
14,GCAGGTCC,-0.0874
15,CCAGGACG,0.0331
16,ACATGACG,-0.07
17,CCACGAAC,0.105
18,CCGGGCCG,0.0436
19,TATCCAGA,0.0532
20,AACAGAAC,0.092
21,AGGCTCTG,-0.166
22,TAGAAGGA,-0.224
23,CACCTTAC,0.148
24,ATTGATTC,0.126
25,ATAGCGTG,-0.165

row,Sequence,PBM E-score
1,ACACATGA,0.0369
2,ACCGTCTG,-0.0499
3,AAATGGTG,0.195
4,TCAACTGA,-0.101
5,AGGATAGC,-0.137
6,AGGCATAG,-0.181
7,CATTACAG,0.149
8,CCCCGGCA,-0.216
9,ATAGGTGC,-0.149
10,TCGTAGAA,0.0356
11,CGAGATAA,0.142
12,GGGGTGTA,-0.0539
13,CGCCATCA,-0.153
14,CGGGTTAA,0.356
15,CATGACGG,0.174
16,AGCACCTA,-0.216
17,AACGCACC,0.0303
18,ACTGTATC,-0.0885
19,ATCTTCGC,0.0308
20,AAAAGGGG,0.00676
21,GGAAATAA,0.182
22,ATACAGTC,-0.148
